# Measurements reported in patent US20200339702A1 (ULTRAHUMAN THIRTEEN, published 2020).
# B1: chimeric 24C05 IgG1 (antibody, from another filing)
# heavy: EVQLVESGGGLVKPGGSLKLSCAASGFTFSDYAMSWVRQTPEKRLEWVATISDGGTYTYYPDNVKGRFTISRDNAKNNLYLQMSHLKSEDTAMYYCAREWGDYDGFDYWGQGTTLTVSSASTKGPSVFPLAPSSKSTSGGTAALGCLVKDYFPEPVTVSWNSGALTSGVHTFPAVLQSSGLYSLSSVVTVPSSSLGTQTYICNVNHKPSNTKVDKRV[in this place human IgG1 Fc]
# light: DIQMTQSPSSLSASLGERVSLTCRASQEISGYLSWLQQKPDGTIKRLIYAASTLDSGVPKRFSGSRSGSDYSLTIGSLESEDLADYYCLQYDSYPYTFGGGTKLEIKRTVAAPSVFIFPPSDEQLKSGTASVVCLLNNFYPREAKVQWKVDNALQSGNSQESVTEQDSKDSTYSLSSTLTLSKADYEKHKVYACEVTHQGLSSPVTKSFNRGEC
# Tests used:
# [1] = target: human ERBB3 human Fc tagged recombinant protein (human) (UniProt P21860); assay: direct binding ELISA on coated human ERBB3-Fc, IgG1 titrated
# [2] = target: rhesus monkey ERBB3 human Fc tagged recombinant protein (rhesus monkey (Macaca mulatta)); assay: direct binding ELISA on coated rhesus ERBB3-Fc, IgG1 titrated
# [3] = target: T1, human ERBB3 His tagged, monomeric (human, UniProt P21860 in part, biotinylated in the Alphascreen assays (sites not given)); assay: Alphascreen competition, solution phase; competitor h24C05 IgG1
# T1 construct: Used unbiotinylated as Biacore analyte and biotinylated in Alphascreen; treated as one molecule; also called human ERBB3-His (Acrobiosystems); biotinylated monomeric human ERBB3
binder,measurement,setting,value
B1,EC50 (read off the curve),[1],0.1 nM
same,EC50 (read off the curve),[2],0.1 nM
same,IC50,[3],0.16 nM
